Data published in PubChem BioAssay AID1030 (National Center for Advancing Translational Sciences (NCATS), 2008).
Where “and” joins values, the source holds several entries; their conditions need not be identical. Equal entries are not always repeated. Out of some 220,000 compounds screened, about 16,000 (7.3%) were called active. The inconclusive results got no clear call from the source; some entries with a clear call stand among them for comparison. Calls follow the shape of the dose curve; as a rule, active = well fitted inhibition curve with a large enough effect (not every such curve was filed as active); inconclusive = small, poorly fitted or top-dose-only effect, or another doubt; inactive = no such curve, though single readings can be large or run the other way. Where the call is inconclusive, the potency comes from a doubtful curve fit. Where a structure was tested more than once in an assay, its records may differ in their call.

The compounds below were run against Aldehyde dehydrogenase 1A1 (Homo sapiens) (UniProt P00352) (assay: qHTS Assay for Inhibitors of Aldehyde Dehydrogenase 1 (ALDH1A1)). Conditions: Purified ALDH1A1, NADH fluorescence, propionaldehyde substrate; series mostly up to 75.3 µM.
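For activity, negative = inhibition in this document: plate controls were no enzyme wells and a reference inhibitor.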
Potency is read from the fitted curve at half-maximal effect; tags tell the direction and shape of the fitted curve.

Sequence of UniProt P00352 (P00352 whole entry, looked up): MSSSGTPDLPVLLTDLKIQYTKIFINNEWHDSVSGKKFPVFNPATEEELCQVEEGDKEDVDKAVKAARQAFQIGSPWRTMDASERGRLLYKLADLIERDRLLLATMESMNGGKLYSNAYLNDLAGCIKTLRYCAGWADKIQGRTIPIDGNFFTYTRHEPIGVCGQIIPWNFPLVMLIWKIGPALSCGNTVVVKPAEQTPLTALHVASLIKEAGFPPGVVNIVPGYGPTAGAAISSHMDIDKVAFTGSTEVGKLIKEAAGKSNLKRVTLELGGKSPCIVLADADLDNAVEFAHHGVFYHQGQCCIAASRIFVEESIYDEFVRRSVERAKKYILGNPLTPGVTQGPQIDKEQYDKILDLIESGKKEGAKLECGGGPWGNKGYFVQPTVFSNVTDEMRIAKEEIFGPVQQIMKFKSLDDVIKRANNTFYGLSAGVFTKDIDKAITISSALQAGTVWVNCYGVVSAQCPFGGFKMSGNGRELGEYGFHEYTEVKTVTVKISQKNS

Row | SMILES | Potency | activity, negative = inhibition
1 | Cc1cccc(CN2CCN(c3ccc(Cl)cc3)CC2)c1 | inconclusive: 8.91 µM [inhibitor, single point] | –
2 | O=C(c1cc2ccccn2n1)N1CCC2(CC1)OCCO2 | inconclusive: 25.1 µM [inhibitor, single point] | –
3 | COc1ccc2o/c(=N\O)c(C(=O)Nc3ccc(C)cc3)cc2c1 | inconclusive: 25.1 µM [inhibitor, single point] | –
4 | O=c1c2cc(N3CCOCC3)ccc2[nH]c(=S)n1Cc1ccc(Cl)cc1 | inconclusive: 17.8 µM [inhibitor, partial curve] | –
5 | O=C(c1cc2ccccn2n1)N1CCN(Cc2ccccc2)CC1 | inconclusive: 31.6 µM [inhibitor, partial curve] | –
6 | CCNC(=S)NCCC1=c2ccccc2=N/C1=C\c1c(O)n(C)c(=O)n(C)c1=O | inconclusive: 25.1 µM [inhibitor, partial curve] | –
7 | O=[N+]([O-])c1ccc2nc(CCCc3nc4ccc([N+](=O)[O-])cc4[nH]3)[nH]c2c1 | active: 14.1 µM | –
8 | CC(=O)O[C@H]1CC[C@H]2[C@@H]3CCC4=C[C@@H](C5SCCS5)[C@H](OC(C)=O)C[C@]4(C)[C@H]3CC[C@@]12C | – | inactive: -14.8% [at 13.5 µM]
9 | CC1=CC(=C2C(=O)NC(=S)NC2=O)C=C(C(F)(F)F)N1Cc1ccccc1 | inconclusive: 3.16 µM [inhibitor, partial curve] | –
10 | Cc1ccc(-n2c(-c3cccs3)nc3ccccc3c2=O)cc1 | inconclusive: 8.91 µM [inhibitor, partial curve] | –
11 | Cn1c(O)c(C=NCc2ccco2)c(=O)n(C)c1=O | inconclusive: 22.4 µM [inhibitor, single point] | –
12 | COc1cc(CC2C(=O)N(C)C(=O)N(C)C2=O)ccc1OCc1ccccc1 | inconclusive: 39.8 µM [inhibitor, single point] | –
13 | COc1ccc2c3c1OC1CC(O)C=C[C@@]31CCN(C)C2 (some centres not stated) | inactive | –
14 | Cc1nccc2c1[nH]c1ccccc12 | inconclusive: 28.2 µM [inhibitor, partial curve] [middle of 6 runs] | –
15 | Clc1ccccc1CN1CCN(c2ccccc2)CC1 | inconclusive: 44.7 µM [inhibitor, single point] | –
16 | O=C(NC[P+](=O)O)OCc1ccccc1 | inactive | –
17 | NC(N)=NOCCC(N)C(=O)O (configuration not stated) | inactive | –
18 | BrCC(Br)C1CCC(Br)C(Br)C1 (configuration not stated) | inconclusive: 39.8 µM [inhibitor, single point] | –
19 | CN(C)CCN(Cc1ccccc1)c1ccnc(N(C)C)c1C#N | inconclusive: 44.7 µM [inhibitor, single point] | –
20 | CN1C2CCC1CC(C(=O)OC(CO)c1ccccc1)C2 (configuration not stated) | inactive | –
21 | CCCCn1c(=O)c(C=Nc2cccnc2Cl)c(O)n(CCCCl)c1=O | inconclusive: 28.2 µM [inhibitor, single point] | –
22 | O=C(Cc1ccccc1)N1CCN(Cc2ccccn2)CC1 | inconclusive: 22.4 µM [inhibitor, single point] | –
23 | O=C1CC(N2CCC(n3c(=O)[nH]c4ccccc43)CC2)C(=O)N1c1ccc(F)cc1 (configuration not stated) | inactive | –
24 | Clc1ccc(-c2nc3ccc(Cl)cn3c2CN2CCOCC2)cc1 | inactive | –

Row | SMILES | Potency | activity, negative = inhibition
25 | O=C(c1ccc(Cl)cc1)C1CCCN(Cc2cccc3ncccc23)C1 (configuration not stated) | inconclusive: 39.8 µM [inhibitor, single point] | –
26 | O=C(CNC(=O)c1ccc(Cl)cc1)Nc1ccc(Br)cc1C(=O)c1ccccc1 | inconclusive: 15.8 µM [inhibitor, partial curve] | –
27 | Nc1c(Cl)cc([N+](=O)[O-])cc1Cl | inconclusive: 39.8 µM [inhibitor, single point] | –
28 | COc1ccc(OCC(=O)N2CCN(C(C)C)CC2)cc1 | inconclusive: 39.8 µM [inhibitor, single point] | –
29 | O=C1NC(=O)C(=Cc2ccc3ccccc3c2)C(=O)N1 | inconclusive: 23.8 µM [inhibitor, partial curve] | –
30 | COc1ccc(O)c(CN2CCCC(C(=O)c3sccc3C)C2)c1 (configuration not stated) | active: 12.6 µM | –
31 | CCCCOP(=O)(c1ccc(N(C)C)cc1)C(Nc1ccccc1)c1ccccc1 (configuration not stated) | inconclusive: 39.8 µM [inhibitor, single point] | –
32 | N[C@@H](Cc1cc(Br)c(O)c(Br)c1)C(=O)O | inconclusive: 3.98 µM [inhibitor, partial curve, poor fit] and inconclusive: 39.8 µM [inhibitor, single point] | –
33 | CC(Cl)(Cl)Cl | inactive | –
34 | COc1ccc(/C=C2\C(=O)NC(=O)N(Cc3ccccc3)C2=O)c(OC)c1OC | active: 10 µM | –
35 | CN1C[C@H](CO)C=C2c3cccc4[nH]cc(c34)C[C@@H]21 | inconclusive: 10 µM [inhibitor, partial curve] | –
36 | CC(C)(C)OO | inconclusive: 22.4 µM [inhibitor, single point] | –
37 | CN(C)c1ccc(/C=C2/C(=O)NC(=O)N(Cc3ccco3)C2=O)cc1 | active: 1 µM | –
38 | COc1ccc2c(c1)CC1(CN2C)C(=O)NC(=O)N(c2ccc(F)cc2)C1=O (configuration not stated) | inactive | –
39 | N/C(=N\N=C\c1ccc(O)cc1O)N[N+](=O)[O-] | inactive | –
40 | CC(C)NC(C)C(=O)c1ccc2ccccc2c1 (configuration not stated) | inconclusive: 39.8 µM [inhibitor, single point] | –
41 | Cc1ccc(NC(=O)OC(C)CNC(=O)Oc2cccc(C)c2)cc1 (configuration not stated) | active: 20 µM | –
42 | O=C(COc1ccc(Br)cc1)N1CCN(Cc2ccncc2)CC1 | inconclusive: 35.5 µM [inhibitor, partial curve] | –
43 | Cn1c2ccccc2c2cnn(CC(=O)N3CCC4(CC3)OCCO4)c(=O)c21 | inconclusive: 25.1 µM [inhibitor, partial curve] | –
44 | Cc1ccc2c(c1)CC1(CN2C)C(=O)NC(=O)N(c2ccc(C)c(C)c2)C1=O (configuration not stated) | inconclusive: 39.8 µM [inhibitor, single point] | –
45 | C=CCc1cc(OC)c2c(c1)OCO2 | inconclusive: 39.8 µM [inhibitor, single point] | –
46 | Cc1c(N=Cc2c(O)n(Cc3ccco3)c(=O)[nH]c2=O)c(=O)n(-c2ccccc2)n1C | inconclusive: 39.8 µM [inhibitor, single point] | –
47 | CCCCCCOc1ccc(C(=O)n2cnc(N)n2)cc1 | inconclusive: 44.7 µM [inhibitor, single point] | –
48 | N#C/C(N)=C(/N)C#N | inactive | –

Row | SMILES | Potency | activity, negative = inhibition
49 | Cc1ccc2c(c1)C1CN(C)CCC1N2C(=O)/C(C#N)=C/c1ccc2c(c1)OCO2 (configuration not stated) | inconclusive: 39.8 µM [inhibitor, single point] | –
50 | CNc1ccc(C(=O)CC(O)CCC(C)C2OC(=O)CC(O)CC(=O)CC(O)CC(O)CC(O)CC(O)CC3(O)CC(O)C(C(=O)OC)C(CC(O[C@@H]4OC(C)C(O)C(N)C4O)/C=C/C=C/C=C/C=C/C=C/C=C/C=C/C2C)O3)cc1 (some centres not stated) | inactive | –
51 | Cc1ccc(-c2n[nH]c(=S)n2-c2ccccc2)cc1 | inconclusive: 1.12 µM [inhibitor, partial curve] | –
52 | COc1ccc(-n2c(/C=C/c3ccc4c(c3)OCO4)nc3ccccc3c2=O)cc1 | inconclusive: 7.94 µM [inhibitor, single point] | –
53 | NC(=S)N/N=C/c1coc2ccccc2c1=O | active: 14.1 µM | –
54 | COC(=O)c1ccc(-c2nc(-c3ccc(Br)o3)no2)cc1 | inconclusive: 39.8 µM [inhibitor, single point] | –
55 | O=c1oc2ccccc2c(O)c1Cc1c(O)c2ccccc2oc1=O | inactive and active: 6.31 µM | –
56 | COC(=O)CC1(Cc2ccccc2)C(=O)NC(=O)NC1=O | inactive | –
57 | CCCc1nc2ccccc2c(=O)n1-c1cccc(OC)c1 | inactive | –
58 | N#CCCCl | inactive | –
59 | CCCCN1C2CCC1CC(OC(c1ccc(F)cc1)c1ccc(F)cc1)C2 (configuration not stated) | inactive | –
60 | CC1CCN(CC(=O)c2ccccc2Cl)CC1 | inconclusive: 22.4 µM [inhibitor, partial curve] | –
61 | CN1C(=O)NC(=O)/C(=C/c2ccc([N+](=O)[O-])o2)C1=O | inconclusive: 31.6 µM [inhibitor, single point] | –
62 | COc1cc([C@H]2c3cc4c(cc3[C@@H](O)[C@@H]3COC(=O)[C@H]23)OCO4)cc(OC)c1OC | inactive | –
63 | O/N=C1/C(=C\c2ccccc2)N2CCC1CC2 | inconclusive: 39.8 µM [inhibitor, single point] | –
64 | O=C(Nc1ccccc1)N1CC2(CCN(C(=O)Oc3ccccc3)CC2)C1 | inconclusive: 39.8 µM [inhibitor, single point] | –
65 | Cc1ccccc1N1C(=O)NC(=O)/C(=C\c2cc(C)n(C)c2C)C1=O | inactive | –
66 | CCCCn1c(O)c(C(C)=NCCN2CCCCC2)c(=O)[nH]c1=O | inconclusive: 39.8 µM [inhibitor, single point] | –
67 | Cc1onc(-c2ccccc2)c1C(=O)N1CCC2(CC1)OCCO2 | inconclusive: 22.4 µM [inhibitor, partial curve] | –
68 | COc1ccc(CCN(C)Cc2ccc(F)cc2F)cc1OC | inconclusive: 14.1 µM [inhibitor, partial curve] | –
69 | COc1ccc(C(c2nnnn2CC2CCCO2)N2CCN(c3ccccc3)CC2)cc1 (configuration not stated) | inconclusive: 17.8 µM [inhibitor, partial curve] | –
70 | CC1(C)N(O)C2CCCCC2N1O (configuration not stated) | inconclusive: 39.8 µM [inhibitor, single point] | –
71 | CCOP(=S)(OCC)SCCSCC | active: 14.1 µM | –
72 | Fc1ccc(C2=CCN(C(c3cccs3)c3nnnn3CCc3ccccc3)CC2)cc1 (configuration not stated) | inconclusive: 25.1 µM [inhibitor, single point] | –
